The campaign covered roughly 220,000 compounds. About 2,300 (1%) were called active. The shares of active, inactive and inconclusive entries below differ from those in the screen. The call rests on the fitted dose curve; in most records, active means well fitted inhibition curve with a large enough effect; inconclusive means small, poorly fitted or top-dose-only effect, or effect the other way; inactive means no such curve, though single readings can be large or run the other way. Potencies of inconclusive entries are left out as doubtful fits.
target: Neuropeptide S receptor (Homo sapiens) (UniProt Q6W5P4); assay: qHTS Assay for Antagonists of the Neuropeptide S Receptor: cAMP Signal Transduction; conditions: CHO-NPSR cells, cAMP TR-FRET, antagonist mode; activity change, negative = inhibition: at 38.3 µM (top of the series) unless noted; further: nearly all actives have a fitted effect of over 50% in size
On the % scale 0 is the no-effect control and ±100 the full control effect; potency means the concentration at half of the fitted maximal effect; tags describe the fitted curve by direction and shape.

Sequence of UniProt Q6W5P4 (Q6W5P4 whole entry, looked up): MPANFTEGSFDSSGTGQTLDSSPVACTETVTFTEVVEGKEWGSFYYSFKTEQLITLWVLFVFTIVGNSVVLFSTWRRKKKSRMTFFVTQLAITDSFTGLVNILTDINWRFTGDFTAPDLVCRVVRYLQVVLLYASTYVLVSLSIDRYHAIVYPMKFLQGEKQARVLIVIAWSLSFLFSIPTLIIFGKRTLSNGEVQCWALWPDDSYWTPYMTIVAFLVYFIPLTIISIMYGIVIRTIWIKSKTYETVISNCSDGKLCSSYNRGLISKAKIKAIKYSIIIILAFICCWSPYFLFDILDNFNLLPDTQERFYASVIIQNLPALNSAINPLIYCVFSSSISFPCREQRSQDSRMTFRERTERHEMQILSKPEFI

Compound | Potency | activity change, negative = inhibition
CCOc1ccc(N(CC(=O)NC2CCCC2)C(=O)CSc2nnc(COc3ccccc3)o2)cc1 | inconclusive [inhibitor, partial curve] | 
O=C1CC(c2ccccc2Cl)Cc2c1cnn2-c1nc2ccccc2s1 (configuration not stated) | inconclusive [inhibitor, partial curve] | 
Cc1ccc(Cl)cc1N1CCN(C(=O)c2ccc(NS(=O)(=O)c3c(C)noc3C)cc2)CC1 | inconclusive [inhibitor, partial curve] | 
CC(=O)N1CCc2cc(Br)cc(S(=O)(=O)N3CCCCCC3)c21 | inconclusive [inhibitor, single point] | 
COc1ccc(OC)c(N2CC(O)=C(c3nc4ccccc4s3)C2=N)c1 | inconclusive [inhibitor, single point] | 
O=S(=O)(Nc1nc(-c2sccc2Cl)cs1)c1cc(Cl)ccc1Cl | inconclusive [inhibitor, single point] | 
COc1ccc(N/C(=C(/C(Cl)=C(Cl)Cl)[N+](=O)[O-])n2nnc3ccccc32)cc1 |  | inactive: -7.53% [at 46.1 µM]
CN1CCN(/N=C/c2ccc(Br)cc2)CC1 |  | inactive: 9.81%
N#Cc1c(Oc2ccc3ccccc3c2)sc(C(=O)c2ccccc2)c1N | inconclusive [inhibitor, single point] | 
COC(=O)c1cccc(NC(=O)c2nn(C(C)C)c(=O)c3ccccc23)c1 |  | inactive: -9% [at 46.1 µM]
Cc1ccc(S(=O)(=O)Nc2ccc(NC(=O)Nc3cccc(C(F)(F)F)c3)cc2)cc1 | inconclusive [inhibitor, single point] | 
CCOC(=O)c1csc(NC(=O)CSc2nnnn2-c2ccc3c(c2)OCCO3)n1 |  | inactive: 9.29% [at 46.1 µM]
CC1=CC(=C2C(=O)c3ccccc3C2=O)C=C(C)O1 | inconclusive [inhibitor, single point] | 
O=C(/C=C/c1cn(CC(O)CN2CCCCC2)c2ccccc12)c1ccccc1 (configuration not stated) | inconclusive [activator, partial curve] | 
O=C(N/N=C/C=C/c1ccco1)c1cccnc1 |  | inactive: -7.54% [at 46.1 µM]
Cc1ccc(-c2cc(-c3ccccc3C)[nH]n2)c(O)c1 | inconclusive [activator, partial curve] | 
CCn1c2ccccc2c2cc(NC(=O)C(C)Oc3ccc(OC)cc3)ccc21 (configuration not stated) | inconclusive [inhibitor, partial curve] | 
COCCn1c(SCC(=O)Nc2ccc(S(=O)(=O)N3CCOCC3)cc2)nc2ccccc21 | inconclusive [inhibitor, partial curve] | 
NS(=O)(=O)c1ccc(NCc2cc(Cl)ccc2OCc2ccccc2F)cc1 | inconclusive [inhibitor, partial curve] | 
Cc1sc(NC(=O)c2oc3ccccc3c2C)c(C#N)c1C | inconclusive [inhibitor, single point] | 
Cn1c(CC(=O)Nc2ccccc2)nnc1SCC(=O)c1ccccc1 | inconclusive [inhibitor, single point] | 
c1coc(CN=C2NC(=NCc3ccco3)c3ccccc32)c1 | inconclusive [activator, partial curve, poor fit] | 
CCCCCCC(=O)Nc1nc(C)c(-c2csc(Nc3ccc(Cl)cc3)n2)s1 | inconclusive [inhibitor, partial curve, poor fit] | 

Compound | Potency | activity change, negative = inhibition
CCCOc1ccccc1NC(=O)c1c(-c2ccccc2)noc1C | inconclusive [inhibitor, single point] | 
COc1cccc(Cn2c(N)c(C#N)c3nc4ccccc4nc32)c1OC | inconclusive [inhibitor, full curve, poor fit] | 
N#Cc1c(-c2ccccc2)cc(C2CC2)nc1N | inconclusive [inhibitor, single point] | 
CC1Cc2ccccc2N1CC(=O)Nc1ccc2c(c1)OC(F)(F)O2 (configuration not stated) | inconclusive [inhibitor, single point] | 
CC(/C=C/c1ccco1)=N/NC(=O)c1ccccc1Cl |  | inactive: -11.6% [at 46.1 µM]
C=C(CC)C(=O)c1ccc(OCC(=O)O)c(Cl)c1Cl | inconclusive [inhibitor, single point] | 
c1ccc2c(NCCCN3CCOCC3)c3ccccc3nc2c1 | inconclusive [activator, partial curve] | 
COc1ccc(Nc2nc(Nc3ccc(OC)cc3)nc(SC3=NCCS3)n2)cc1 | inconclusive [inhibitor, single point] | 
O=C(Nc1ccc2c(c1)OCCO2)C1CCN(c2nnnn2-c2ccccc2)CC1 | inconclusive [inhibitor, partial curve, poor fit] | 
C=CCOc1ccc(/C=N/NC(=O)C(=O)Nc2ccccn2)cc1OC |  | inactive: 5.82%
CCC(C)NC(=O)c1ccccc1NC(=O)c1ccc(CSc2ccccc2)cc1 (configuration not stated) | inconclusive [activator, full curve] | 
COC(=O)C1=C(C)NC(C)=C(C(=O)OC)C1C(=O)OCC(=O)c1ccc(F)cc1 |  | inactive: 4.48%
COC(=O)c1cccc(NC(=O)NC(=O)c2ccc(Cl)cc2)c1 | inconclusive [activator, single point] | 
CCOC(=O)c1c(NC(=O)/C=C/C(=O)O)sc(C)c1-c1ccc(C(C)(C)C)cc1 | active: 10 µM | 
Oc1ccc(NCc2cccc(OCc3ccc(F)cc3)c2)cc1 |  | inactive: 12.6%
COc1ccccc1CN(Cc1cc2cc(C)ccc2[nH]c1=O)Cc1nnnn1Cc1ccco1 | inconclusive [inhibitor, partial curve] | 
CCCC[C@@]1(C2CCCC2)Cc2cc(OCC(=O)O)c(Cl)c(Cl)c2C1=O | inconclusive [inhibitor, partial curve] | 
COc1cccc(-n2nnnc2SCC(=O)Nc2cccc(NC(C)=O)c2)c1 |  | inactive: 0.527% [at 46.1 µM]
Cc1ccc(Cn2nnc3c(=O)[nH]c(C4CCCN(C(=O)Nc5ccc(F)cc5)C4)nc32)cc1 (configuration not stated) | inconclusive [inhibitor, partial curve, poor fit] | 
CCCCCCCCCCCCCCCC(=O)NCC(COP(=O)([O-])OCC[N+](C)(C)C)OCC (configuration not stated) | active: 10 µM | 
Cc1c(C(=O)N2CCc3ccccc32)oc2ccccc12 | inconclusive [inhibitor, single point] | 
CCN(CC)c1ccc2cc(-c3nc4ccccc4n3C)c(=O)oc2c1 | inconclusive [activator, full curve, poor fit] | 
N#Cc1cc2cc3c(cc2nc1N1CCOCC1)OCO3 | inconclusive [inhibitor, single point] | 

Compound | Potency | activity change, negative = inhibition
CCc1ccc2[nH]c(=O)c(C(c3nnnn3Cc3ccc(OC)cc3)N3CCOCC3)cc2c1 (configuration not stated) | inconclusive [inhibitor, partial curve, poor fit] | 
CCOc1ccc(-n2cnc3scc(-c4ccc(OC)c(OC)c4)c3c2=O)cc1 |  | inactive: 55.8%
O=[N+]([O-])c1ccc(N2CCN(C(=S)Nc3ccccc3)CC2)cc1 |  | inactive: 15%
CCOc1cc2c(cc1OCC)C(C(=O)O)C(c1cc(Br)c(O)c(OC)c1)N(C)C2=O (configuration not stated) | inconclusive [inhibitor, single point] | 
CCO[C@@H]1OC(C(=O)N2CCN(Cc3ccccc3)CC2)=C[C@H](c2ccc(Br)cc2)[C@H]1CCCO | inconclusive [activator, partial curve] | 
COc1cccc(NC(=O)COc2ncnc3sc(C)c(C)c23)c1 | inconclusive [activator, partial curve] | 
COc1ccc(OC)c(NC(=O)c2cc(S(=O)(=O)NCc3ccco3)ccc2F)c1 | inconclusive [inhibitor, single point] | 
O=C(Nc1ccc(Cl)cc1Cl)c1ccc(-c2ccccc2)cc1 | inconclusive [inhibitor, single point] | 
Clc1ccc(CCNc2ncnc3nc[nH]c23)cc1 |  | inactive: -8.35%
Cn1nc(C(F)(F)F)c(C(=O)Nc2cccc(C(F)(F)F)c2)c1SCc1ccc(Cl)cc1 | inconclusive [inhibitor, single point] | 
COC(=O)c1c(NC(=O)COC(=O)Cn2cnc3ccccc32)sc(C)c1C |  | inactive: 5.99% [at 46.1 µM]
O=C(CSc1ncnc2nc[nH]c12)c1ccccc1 |  | inactive: -29.3% [at 46.1 µM]
CS(=O)(=O)N(Cc1ccc(Cl)cc1)c1ccc(C(=O)NCCSCc2ccco2)cc1 | inconclusive [inhibitor, single point] | 
COC(=O)c1cc(NC(=O)Nc2cccc(Cl)c2)ccc1Cl | inconclusive [inhibitor, single point] | 
CCC(C)(C)n1nnnc1C(c1cccnc1)N1CCN(c2cccc(C(F)(F)F)c2)CC1 (configuration not stated) | inconclusive [inhibitor, partial curve] | 
O=C(c1ccc(COc2ccccc2Br)o1)N1CCCCCC1 |  | inactive: -26.7% [at 46.1 µM]
Cc1ccc(N(CC(=O)NCCc2ccc(F)cc2)S(=O)(=O)c2ccc(Cl)c([N+](=O)[O-])c2)c(C)c1 | inconclusive [inhibitor, single point] | 
CCOC(=O)/C=c1\s/c(=C\c2ccc(C(F)(F)F)cc2)c(=O)n1CC(=O)NCc1ccco1 |  | inactive: 11.7%
O=C(c1cccc(Br)c1)c1conc1C(=O)c1ccco1 |  | inactive: -1.85%
Cc1ccc(NC(=O)COC(=O)c2cccc3c2C(=O)c2ccccc2C3=O)c(C)c1 | inconclusive [inhibitor, single point] | 
O=C1c2ccccc2C(=O)C12OC2c1cccc2ccccc12 (configuration not stated) | inconclusive [inhibitor, single point] | 

Source: PubChem BioAssay AID1461 (National Center for Advancing Translational Sciences (NCATS), 2008)
